Measured values published in the supplement of paper PMC10126150.
Values marked as one replicate rest on one cluster of the flow cell; about a third of the high ones do not repeat.

test system: ATP; assay: switch fluorescence ratio, 500 uM ATP over buffer (Cy3 cluster intensity, sum of 5 cycles each) (fold (ratio)); higher = stronger signal-on switching upon ATP binding; sequences stand for … in TCGTCGGCAGCGTCAGATGTGTATAAGAGACAGTTTTTTTTTTTTTTTTTTTTTTTTT…TC; details: aptamer strand: ATP DNA aptamer (quencher-CACCTGGGGGAGTATTGCGGAGGAAGG + anchor), 100 nM annealed; ATP concentration: 500 uM; one replicate
How it was run: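 Clusters with intensities outside 100-1000 RFU were excluded. The remaining Cy3-labelled switching-strand clusters on a modified Illumina MiSeq flow-cell had been annealed to 100 nM quencher-labelled ATP aptamer and imaged in selection buffer, then after 15 min with 500 uM ATP at 22 °C, for five cycles separated by NaOH stripping and re-annealing. The fluorescence ratio, averaged per switch-domain sequence, is each cluster's summed target-cycle Cy3 intensity over its summed buffer-cycle Cy3 intensity.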
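Note: ATP exposure 15 min at 22 °C before imaging.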

Sequence	switch fluorescence ratio
ATGTGTAAGA	1.01
GAGTGCTCCA	0.975
GAGAGTTCGG	0.99
CGAACAGAAC	1.1
TAAATCACAG	1.02
AGTCCGTTCA	0.988
CCCCTCGCTT	1.63
TAATCGCCGC	1.01
TTCACAACGC	1.08
GGGTGCAGAA	1.07
CAGTCACGGA	0.982
CACCAGTG	4.38
CAGTGCAGCT	1.02
GTTAATTGGA	0.99
TGTCTGAGTG	0.965
AAGCAAAA	1.07
GTTTTGGCGA	1.01
GCTAGGAGTG	0.965
CTGTTACATG	0.972
TACCTAACG	1.31
TACGGTTGGG	0.997
GATGAGGCTT	0.967
CAGCTAGTAT	0.984
CATGAAATG	0.97
ATTTTGTAGA	1.07
TAATAGACTA	1.01

Sequence	switch fluorescence ratio
AGCAGGGAGT	1.01
AGGAGAAAGC	1.08
AGACTGGCGA	0.869
TGGCTTCGTA	0.981
GGCTGCATTG	0.987
TGATTCGATC	0.928
CGATGCTAGG	1.08
AGGCTTCTC	1.07
CCCAAATGCG	1.06
TAATTCGG	0.99
AAGGTCGAGG	1
GTCTAAACGA	0.942
TACATACGGT	1.45
TGGTTCGATC	1.02
TGTGAGTCTA	0.947
TCATCGAAAT	1.01
TACCAGACGT	1.35
ACCTCGTATT	1.01
ATCATGAAAT	0.975
CAAAGGCTAC	1.27
CCGTTGTGTG	1.02
GGATATCCGA	0.968
GGCTTTTTAT	1.81
CAGAGGTGCA	1
TGAGCTAGTA	1.04
TGTGCTGCGA	1.04

Sequence	switch fluorescence ratio
GCATTGGGTT	0.961
ACTTGTTGAT	1.01
GCCCCCAGTC	1.27
GCAATTTCTC	2.23
TAACTATCGA	0.977
ACGTTCGCCA	1.08
GTATCATCA	1.04
GTAGACCAGT	0.991
TATGAAAAGC	1
CACGTCTACC	1.38
TAGTAGGT	1
TCTCAGACAG	1.01
CACAAGCCAC	1.26
TCACGCCATT	1.17
CCGGGGCCAG	0.957
AATAGCCGG	1.01
CCGTTGCCTA	1.05
CGTCATCGAG	1.03
GAGTCTTGTC	1.05
ACCACATTTT	1.05
TCATACAGGC	0.986
AAATTGTGTC	0.962
AGACATCGTA	0.944
TGCGTATCTA	1.01
GCAAGGGCAC	1.04
CCGTTCCGG	0.962

Sequence	switch fluorescence ratio
TCGGGAGCAC	2.52
ACCGGCAAGC	2.12
CCATTGTATT	0.992
TGCTAGGTG	1.66
CGTCGCTAGT	1.03
AACTCTTTTC	1.34
TCCAATGGGG	0.996
GTTGGATTAT	0.999
AAGATGTTGA	0.981
GCCTCAACTG	1
GAGATCATAC	1.04
CGCAGTTACG	2.19
GCTGTCGCCG	0.956
TCTGGGCCGT	1
ATTTGCTGGA	1.04
TTAGCGAGAA	1.13
AACTTTGAGT	1.03
CAGGCGGGGC	0.998
ACTAGGTTG	0.986
TTCGGATCAT	1.01
TTTCGAGGTA	1
GGTTGCCGCC	1.02
CGCCTCTCAA	1.6
CATAAGCCGC	1.08
CGATCGAGTT	0.959
CCAACGGGCC	1.25

Sequence	switch fluorescence ratio
TACAAGCAGA	1.05
ACAGTGTCCA	1.01
GGTACGATGA	0.997
CGTACTCTA	1.11
TTAAGATCG	1.04
ATGTTTGCGG	1.02
GCAGCTGGT	1.03
TGAATCATTC	1.01
ATAGCCTGAA	1.02
TATGTTATCC	1
CTATGAAAGG	0.992
TGCGCTTCGT	0.994
TAAATTTACC	0.989
CTGAACATAA	1.03
ATCGGTTCGA	1.02
TGATGGCTTT	1.05
TGCCGAAAGA	1.01
CCTTTTAGTA	1.01
TCAGCCTTGA	0.964
TCGATTTCGC	1.07
TCAGAAATCG	1.02
AGGGCCGATC	0.965
AGAATTACTG	1.06
TAAAGGATCA	0.966
TGCTTCAGA	0.981
CCATCCCTCG	1.04

Sequence	switch fluorescence ratio
GCGTCGTAAC	0.995
GCGCACTGCC	1.14
TGGTGAAGGA	0.992
ACGGCCATTT	1.04
TGGTTGAAA	0.967
TGGAGCACA	2.15
GGCTGAACCC	1.01
TCCTACTTAA	1.07
ATTTAGGCGG	1.02
TCCTCATTAG	1.2
AAACGGCGGA	1.02
TCGGGTCGT	0.98
GTCATCTGGA	1.01
GAAAGTAAG	0.986
CATAGGTTAG	0.979
GTGGAAATTA	0.97
GTTACGATG	0.993
GAGCACGAAT	1.03
ACGCGGGTTC	0.968
AGTTCAAATG	0.976
CCGGATAGGG	1.04
ATGGGAGC	1.05
CTAGCGGCAT	1.06
ACAAGTGGCC	1.03
